From PubChem BioAssay AID686979 (National Center for Advancing Translational Sciences (NCATS), 2013)
Screen size: about 420,000 compounds; about 50,000 (12%) were called active. The inconclusive results got no clear call from the source; some entries with a clear call stand among them for comparison. Calls come from the whole dose curve; as a rule, active = well fitted inhibition curve with a large enough effect; inconclusive = small, poorly fitted or top-dose-only effect; inactive = flat fitted curve, though single readings scatter. No potency is given beside an inconclusive call; the fits are too rough.
% is set by controls: 0 for no effect and ±100 for the full control effect; potency is the fitted concentration of half-maximal effect; tags give direction and shape of the fitted curve.

Test: qHTS for Inhibitors of human tyrosyl-DNA phosphodiesterase 1 (TDP1): qHTS in cells in presence of CPT; note: nearly all actives have a fitted effect of over 55% in size
Conditions: chicken DT40 Tdp1-/-;hTDP1 cells + 20 nM CPT, ATP luminescence, 48 h; activity change, negative = growth inhibition: at 46.2 µM (top of the series) unless noted
Procedure, shortened: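 Chicken DT40 Tdp1-/- cells stably complemented with human TDP1 were seeded at 400 cells/well in medium containing 20 nM camptothecin, exposed to pin-transferred compounds, and grown at 37 °C for at least 48 hr. Viability was read as ATP luminescence.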
With COc1ccc(-c2nc(CSCC(=O)NC3CCN(Cc4ccccc4)CC3)c(C)o2)cc1OC the Potency was inconclusive [inhibitor, single point]. For O=C(CCNC(=O)c1ccc(Cl)cc1)Nc1ccccc1N1CCCC1, the “activity change, negative = growth inhibition” value was inactive: -14.7%. In the case of COc1ccc(CCNC(=O)CC(c2ccccc2)c2cc(C)ccc2O)cc1OC (configuration not stated), the Potency is reported as active: 25.9 µM. With COC(=O)CCc1n[nH]c(=O)[nH]c1=O the “activity change, negative = growth inhibition” value was inactive: -14.4%. In the case of CC1(C)CC(=O)C=C(N2CCCC2)C1, the “activity change, negative = growth inhibition” value is reported as inactive: 5.46%. With NC1=NC[C@@H](Cc2ccc(O)cc2)N1CCCCC1CCCCC1 the Potency was active: 5.17 µM. With Cc1ccc(Cc2nc3ccccc3nc2SCC(=O)Nc2cccc(C(F)(F)F)c2)cc1 the Potency was inconclusive [inhibitor, single point]. With COc1cc(/C=C2\SC(=S)N(NC(C)=O)C2=O)ccc1OC(=O)c1ccco1 the Potency was inconclusive [inhibitor, partial curve]. For CC(=O)c1ccc(N2CCN(S(=O)(=O)c3cccc4nonc34)CC2)cc1, the Potency was inconclusive [inhibitor, single point]. In the case of CC(C)CN1C(=O)c2ccc(C(=O)Nc3ccncc3)cc2C1=O, the Potency is reported as inconclusive [inhibitor, partial curve]. For CC(C)CC1C(C#N)=C(N)SC(N)=C1C#N, the Potency was inconclusive [inhibitor, single point]. In the case of Cc1ccc(S(=O)(=O)N(C(=O)c2ccncc2)c2ccc(OC(=O)c3ccncc3)cc2)c(C)c1, the Potency is reported as inconclusive [inhibitor, single point]. For CCOC(=O)C(=O)N(C)c1c(CC)nc2c(OCCC3CCCCC3)cccn12, the Potency was inconclusive [inhibitor, single point]. In the case of CC(C)c1cc(C(C)C)c(S(=O)(=O)NC(c2ccccn2)C23CC2C3)c(C(C)C)c1 (configuration not stated), the Potency is reported as inconclusive [inhibitor, single point]. With Cc1cc2c(NC(=O)Nc3ccc(C(C)(C)C)cc3)cccc2nn1 the Potency was inconclusive [inhibitor, single point]. With O=c1c2ccccc2nnn1CSc1nnc(COc2ccc(Cl)cc2)n1Cc1ccco1 the Potency was active: 23.1 µM. In the case of Cc1ccc(-n2ncc3c(NC4CCCCC4)ncnc32)cc1, the Potency is reported as inconclusive [inhibitor, single point]. In the case of O=C(Oc1ccc(Br)cc1)c1n[nH]c(=O)c2ccccc12, the “activity change, negative = growth inhibition” value is reported as inactive: -23.4%. For O=C(Nc1nc2ccccc2s1)NC1CCCCC1, the Potency was inconclusive [inhibitor, single point]. With COc1ccc(NC(=O)N(C)C[C@H]2OCCCC[C@H](C)Oc3ccc(NC(=O)Nc4ccc5c(c4)OCO5)cc3C(=O)N([C@@H](C)CO)C[C@@H]2C)cc1 the Potency was active: 20.6 µM. With CC1CCC(NC(=O)c2ccc(NC(=O)CC3SC(N4CCCC4)=NC3=O)cc2)CC1 (configuration not stated) the Potency was inconclusive [inhibitor, single point]. For NC(=S)Nc1cc(Cl)ccc1Cl, the Potency was active: 14.6 µM. With CCOc1ccc(NS(=O)(=O)c2ccc(C(=O)NCc3cccnc3)cc2)cc1 the Potency was inconclusive [inhibitor, full curve, poor fit]. For O=C(N/N=C/c1ccc(O)c(O)c1)C1CC1, the “activity change, negative = growth inhibition” value was inactive: -18.3%. With CC(Sc1n[nH]c(N)n1)C(=O)Nc1cccc2ccccc12 (configuration not stated) the Potency was inconclusive [inhibitor, single point]. For CC12CCC(C(=O)N(CSC(=S)N/N=C\c3ccccc3O)C1=O)C2(C)C (configuration not stated), the Potency was inconclusive [inhibitor, single point]. For Cc1cccc(Nc2nc(N)c([N+](=O)[O-])c(N3CC(C)CC(C)C3)n2)c1 (configuration not stated), the Potency was inconclusive [inhibitor, single point]. For COc1ccc(NC(=O)c2cc(-c3cc(OC)c(OC)c(OC)c3)nc3ccccc23)c(OC)c1, the Potency was active: 13 µM. In the case of O=C(CCC(=O)c1ccccc1)Nc1ccc(C(=O)O)cc1, the Potency is reported as inconclusive [inhibitor, full curve, poor fit]. For CCCCN(C(=O)c1sc2nc3n(c(=O)c2c1C)CCC3)c1c(N)n(CC(C)C)c(=O)[nH]c1=O, the “activity change, negative = growth inhibition” value was inactive: 8.66%. In the case of O=C(Nc1ccc(S(=O)(=O)N2CCOCC2)cc1)c1cc(-c2cc(Cl)ccc2O)n[nH]1, the Potency is reported as active: 6.51 µM. For Cc1nn(CC2CCCCC2)c(N)c1-c1ccccc1, the activity change, negative = growth inhibition was inconclusive: -32% [inhibitor]. With COc1ccc([N+](=O)[O-])cc1NS(=O)(=O)c1ccc(C)cc1 the “activity change, negative = growth inhibition” value was inactive: -16.9%. With COc1cc(Cl)c(C)cc1NC(=O)CSc1ccccc1 the “activity change, negative = growth inhibition” value was inactive: -2.09%. For CN(Cc1ccc(OCC(O)CN2CCCCC2)cc1)Cc1ccnc2ccccc12 (configuration not stated), the Potency was active: 9.2 µM. With CC(C)n1ncc2c(C(=O)NCC(=O)Nc3ccccc3Br)cc(C3CC3)nc21 the Potency was inconclusive [inhibitor, single point]. With CC(C)C(c1nnnn1Cc1ccc(F)cc1)N1CCN(C2CCCCC2)CC1 (configuration not stated) the activity change, negative = growth inhibition was inconclusive: -32.8% [inhibitor]. In the case of C=CCn1c(-c2cccc(OC)c2OC)n[nH]c1=S, the Potency is reported as inconclusive [inhibitor, single point]. In the case of Cc1ccc(OCCNC(=O)c2ccccc2SCC(=O)N2CCCC2)cc1, the Potency is reported as inconclusive [inhibitor, single point]. In the case of Cc1ccc(Nc2nnc(-c3ccc4c(c3)OCO4)o2)c(C)c1, the Potency is reported as inconclusive [inhibitor, single point]. With O=C(CCN1CCOCC1)NNC(=O)/C(=C/c1ccccc1)NC(=O)c1ccccc1 the “activity change, negative = growth inhibition” value was inactive: 7.05%. For Cc1cn(C(=O)c2cccc(Br)c2)c(C)n1, the “activity change, negative = growth inhibition” value was inactive: -7.5%. In the case of Cc1ccc(NC(=O)C(Cc2ccccc2)N2C(=O)C3C4CCC(C4)C3C2=O)cc1Cl (configuration not stated), the Potency is reported as inconclusive [inhibitor, single point]. For CCS(=O)CC(=O)Nc1c(-c2ccccc2)oc2ccccc2c1=O (configuration not stated), the “activity change, negative = growth inhibition” value was inactive: 6.83%. With CN(C)c1nc(N(C)C)nc(N2CC(CCl)OC2=N)n1 (configuration not stated) the “activity change, negative = growth inhibition” value was inactive: 17.8%. In the case of CC(C)(C)c1ccc(S(=O)(=O)NCc2nc3cccnc3n2Cc2ccccc2Cl)cc1, the Potency is reported as inconclusive [inhibitor, single point]. For CCOc1ccc(OCCC(=O)Nc2cccc(S(=O)(=O)N3CCCC3)c2)cc1, the Potency was inconclusive [inhibitor, single point]. With COc1cc(C=Cc2nnc3c4ccccc4cnn23)cc(OC)c1OC the Potency was active: 3.26 µM. In the case of Cc1nc(N2CCCC2)c2c(C(=O)N3CCN(c4cccc(C)c4C)CC3)c(C)oc2n1, the Potency is reported as inconclusive [inhibitor, single point]. For O=C(CN1CCCCC1)N1CCc2ccccc21, the “activity change, negative = growth inhibition” value was inactive: -2.91%. In the case of COc1ccc(C2CC(c3cccc(OC)c3OC)n3nnnc3N2)cc1 (configuration not stated), the Potency is reported as inconclusive [inhibitor, single point]. With CN(C)c1ccc(C=NC(CO)C(O)c2ccc([N+](=O)[O-])cc2)cc1 (configuration not stated) the “activity change, negative = growth inhibition” value was inactive: 2.78%. For O=S(=O)(NC1CCN(Cc2ccccc2)CC1)c1cccc2cccnc12, the Potency was inconclusive [inhibitor, single point]. With COc1ccc(OCCCC(=O)Nc2cccc(C(C)=O)c2)cc1 the Potency was inconclusive [inhibitor, single point]. For COc1ccc(NS(=O)(=O)c2csc(C(=O)Nc3ccccc3)c2)cc1, the Potency was inconclusive [inhibitor, single point]. For O=C(CSc1nc(-c2ccccc2)[nH]c1-c1ccccc1)Nc1ccc2c(c1)OCCO2, the Potency was active: 10.3 µM. With O=C(Nc1cccnc1)c1cc(-c2ccco2)on1 the Potency was active: 9.2 µM. For COc1cccc(/C=N/NC(=O)c2[nH]c(C)c(C(=O)N/N=C/c3cccc(OC)c3O)c2C)c1O, the Potency was active: 5.17 µM. With CCOC(=O)C1=C(c2ccccc2)N=c2s/c(=C\c3cccc(O)c3)c(=O)n2C1c1cccs1 (configuration not stated) the Potency was inconclusive [inhibitor, single point]. For Cc1csc(SCC(=O)Nc2nnc(C)s2)n1, the activity change, negative = growth inhibition was inconclusive: -34.3% [inhibitor]. For CCOC(=O)N1CCN(CC(O)COc2ccc(C(C)C)c(C)c2)CC1 (configuration not stated), the Potency was inconclusive [inhibitor, single point]. For CCCN(CCC)C(=O)Cc1coc2ccc3ccccc3c12, the Potency was inconclusive [inhibitor, single point]. In the case of O=C1c2cccc3c(N4CCCCC4)ccc(c23)C(=O)N1c1ccccc1O, the Potency is reported as active: 13 µM. For Cc1nn(-c2ccccc2)c(C)c1/C=N/Nc1nc2ccccc2[nH]1, the Potency was active: 18.4 µM. With Cc1ccc(C(=O)N2CCN(c3ccc([N+](=O)[O-])c(N4CCOCC4)c3)CC2)cc1 the Potency was active: 29.1 µM. With O=C(NCC(c1ccco1)N1CCc2ccccc2C1)c1ccc(Br)cc1 (configuration not stated) the Potency was inconclusive [inhibitor, single point]. With COc1ccccc1N1CCN(CC(O)COc2ccc(C)c(C)c2)CC1 (configuration not stated) the Potency was inconclusive [inhibitor, single point]. In the case of Cc1nc(SCCC(=O)O)c2cc(-c3ccccc3)sc2n1, the “activity change, negative = growth inhibition” value is reported as inactive: -17.6%. For Cc1ccc(Nc2cc(C)c(C#N)c3nc4ccccc4n23)cc1Cl, the Potency was inconclusive [inhibitor, full curve]. With O=C(CN1CCN(c2ncccn2)CC1)Nc1ccccc1-n1cccc1 the Potency was inconclusive [inhibitor, single point]. With CCCSCCCNC(=O)c1ccc2c(c1)nc1n2CCCCC1 the Potency was inconclusive [inhibitor, partial curve]. In the case of Cc1ccccc1Cn1nc(C)c(NC(=O)/C=C/c2cnn(C)c2C)c1C, the Potency is reported as inconclusive [inhibitor, single point].
